# From a collection of fitness landscapes (doi:10.1016/j.celrep.2020.107928)
# In all, about 81,000 sequences were measured (“one-hybrid fitness for binding parS DNA”: median about -0.17, highest 2% from about 0.51 on). The list shows a part of the results.
# B1: Caulobacter ParB omega fusion; a variant is named by its letters at X, in order, B8GW30 (parent)
# chain: MESVVVGEPGMSEGRRGLGRGLSALLGEVDAAPAQAPGEQLGGSREAPIEILQRNPDQPRRTFREEDLEDLSNSIREKGVLQPILVRPSPDTAGEYQIVAGERAWRAAQRAGLKTVPIMVRELDDLAVLEIGIIENVQRADLNVLEEALSYKVLMEKFERTQENIAQTIGKSXSHVANXMRLLXLPDEVQSYLVSGELTAXHARAIAAAADPVALAKQIIEGGLSVRETEALARKAPNLSAGKSKGGRPPRVKDTDTQALESDLSSVLGLDVSIDHRGSTGTLTITYATLEQLDDLCNRLTRGI
# Variants of: B1
# Test: one-hybrid fitness for binding parS DNA (scaled: cognate 1, non-cognate 0); higher = stronger binding
# Conditions: with parS DNA site
# Summary of the method: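 Caulobacter ParB libraries with four specificity codons randomised were screened by bacterial one-hybrid selection in the E. coli USO strain, using a HIS3 reporter whose site lies 19 bp from the promoter. Selection ran for 48 hours at 37°C on M9 lacking histidine, with 0.1 mM IPTG and 5 mM 3-AT. Plasmids were Illumina-sequenced before and after selection, three replicate libraries were pooled, and variants with under 10 reads were dropped. Fitness is the log change in each variant's read ratio to wild type, rescaled against the cognate and non-cognate sites.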
row,Variant,one-hybrid fitness for binding parS DNA
1,PIKL,≤ 0.2
2,FAPD,≤ 0.2
3,SGQT,≤ 0.2
4,QGYC,≤ 0.2
5,HLDT,≤ 0.2
6,SQST,≤ 0.2
7,RKFL,≤ 0.2
8,DCMS,≤ 0.2
9,DGWN,≤ 0.2
10,VGSN,≤ 0.2
11,QAGI,≤ 0.2
12,RMGF,0.269
13,APGR,≤ 0.2
14,RYCM,0.254
15,KRCH,≤ 0.2
16,ILAS,≤ 0.2
17,NCTN,≤ 0.2
18,ALLT,≤ 0.2
19,VRAA,≤ 0.2
20,EWGS,≤ 0.2
21,GACG,≤ 0.2
22,NGQG,≤ 0.2
23,TLYY,≤ 0.2
24,APYP,≤ 0.2
25,QPMD,≤ 0.2
26,RYTA,0.582

row,Variant,one-hybrid fitness for binding parS DNA
1,RTIT,0.813
2,ITLL,≤ 0.2
3,IPGT,≤ 0.2
4,NSES,≤ 0.2
5,WNPT,≤ 0.2
6,NCII,≤ 0.2
7,QGVG,≤ 0.2
8,VRCS,≤ 0.2
9,SHPP,≤ 0.2
10,RYND,0.213
11,WYQL,≤ 0.2
12,CMSG,≤ 0.2
13,ALMK,≤ 0.2
14,RQCV,≤ 0.2
15,ITHT,≤ 0.2
16,YQGS,≤ 0.2
17,AYTV,≤ 0.2
18,SEFT,≤ 0.2
19,HFLP,≤ 0.2
20,VSES,≤ 0.2
21,GVLC,≤ 0.2
22,RRAI,≤ 0.2
23,PTLD,≤ 0.2
24,RKNM,0.234
25,FPPG,≤ 0.2
26,HDMR,≤ 0.2

row,Variant,one-hybrid fitness for binding parS DNA
1,QRFL,≤ 0.2
2,AQAY,≤ 0.2
3,MKKT,≤ 0.2
4,PKAV,≤ 0.2
5,SLDA,≤ 0.2
6,NCPS,≤ 0.2
7,ASQN,≤ 0.2
8,PPAH,≤ 0.2
9,SYGV,≤ 0.2
10,HQTT,≤ 0.2
11,VCQP,≤ 0.2
12,PTIE,≤ 0.2
13,RIAR,≤ 0.2
14,LYLM,≤ 0.2
15,DPAA,≤ 0.2
16,GTTA,≤ 0.2
17,AYPA,≤ 0.2
18,AEPL,≤ 0.2
19,SLEI,≤ 0.2
20,KNDT,≤ 0.2
21,KKCC,≤ 0.2
22,SLAF,≤ 0.2
23,RKCD,≤ 0.2
24,NIPP,≤ 0.2
25,PRLS,≤ 0.2
26,DYFD,≤ 0.2

row,Variant,one-hybrid fitness for binding parS DNA
1,WNCG,≤ 0.2
2,FLDN,≤ 0.2
3,FSNG,≤ 0.2
4,NYVC,≤ 0.2
5,TGRI,≤ 0.2
6,LVSV,≤ 0.2
7,RSFW,≤ 0.2
8,PDCT,≤ 0.2
9,LYWF,≤ 0.2
10,SFVG,≤ 0.2
11,HIAR,≤ 0.2
12,PEFN,≤ 0.2
13,DVHM,≤ 0.2
14,TISQ,≤ 0.2
15,PEHI,≤ 0.2
16,WRAH,≤ 0.2
17,ETPG,≤ 0.2
18,ASFN,≤ 0.2
19,HASN,≤ 0.2
20,PYKS,≤ 0.2
21,PIPF,≤ 0.2
22,DPTF,≤ 0.2
23,AQDE,≤ 0.2
24,RAPL,≤ 0.2
25,LPSK,≤ 0.2
26,MTDY,≤ 0.2

row,Variant,one-hybrid fitness for binding parS DNA
1,SCIC,≤ 0.2
2,HNGS,≤ 0.2
3,DPHR,≤ 0.2
4,CPAC,≤ 0.2
5,EKGY,≤ 0.2
6,QCAY,≤ 0.2
7,PPKW,≤ 0.2
8,WICV,≤ 0.2
9,QTIN,≤ 0.2
10,HTYC,≤ 0.2
11,TPPI,≤ 0.2
12,SLKT,≤ 0.2
13,LQNN,≤ 0.2
14,LAHV,≤ 0.2
15,PCLV,≤ 0.2
16,HLTV,≤ 0.2
17,LQPF,≤ 0.2
18,GREC,≤ 0.2
19,MTYS,≤ 0.2
20,EMVW,≤ 0.2
21,CTML,≤ 0.2
22,ARRS,≤ 0.2
23,INGE,≤ 0.2
24,NIPR,≤ 0.2
25,LLTQ,≤ 0.2
26,WISH,≤ 0.2

row,Variant,one-hybrid fitness for binding parS DNA
1,YNEP,≤ 0.2
2,HATR,≤ 0.2
3,RKIV,≤ 0.2
4,WVST,≤ 0.2
5,SACQ,≤ 0.2
6,VSHQ,≤ 0.2
7,GAID,≤ 0.2
8,KHHR,≤ 0.2
9,CAQR,≤ 0.2
10,SPML,≤ 0.2
11,YIKE,≤ 0.2
12,PMNN,≤ 0.2
13,RWRH,0.223
14,YPVD,≤ 0.2
15,QNVI,≤ 0.2
16,AGNM,≤ 0.2
17,WWTF,≤ 0.2
18,WYYF,≤ 0.2
19,QTMY,≤ 0.2
20,WGRG,≤ 0.2
21,LAPC,≤ 0.2
22,RIFM,0.336
23,RYYG,0.997
